Laboratory results: the supplement of paper PMC4604168 (melanoma cell lines)
Some of the results follow. Repeats are few or missing, and single values can be far off.

Experiments:
Assay in all cases: cell count relative to DMSO control; melanoma cells; higher = more viable cells
Conditions in all cases: library dose: low library concentration; 72 h
[1] = system: COLO792
[2] = system: COLO800
[3] = system: COLO829
[4] = system: G361
[5] = system: IPC-298
[6] = system: IST-MEL1
[7] = system: LB2518-MEL
[8] = system: LOXIMVI
[9] = system: MEL-HO
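Note: cell number obtained by counting DAPI-stained nuclei in high-throughput microscope images with image analysis software, screen run in 1,536-well plates.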

| SMILES | cell count [1] [%] | cell count [2] [%] | cell count [3] [%] | cell count [4] [%] | cell count [5] [%] | cell count [6] [%] | cell count [7] [%] | cell count [8] [%] | cell count [9] [%] |
| --- | --- | --- | --- | --- | --- | --- | --- | --- | --- |
| O=C(O)[C@@H]1[O][Sb](=[O])([O][Sb]2(=[O])[O][C@H]([C@H](O)CO)[C@H](O)[C@H](C(=O)O)[O]2)[O][C@H]([C@H](O)CO)[C@@H]1O (stereo partly specified) [stibogluconate] + CC(C)CCN1c2nc(Nc3cc(F)c(O)c(F)c3)ncc2N(C)C(=O)C1C [BID1870] (first compound 2 µM, partner dose 0.2 µM) | 95.3 | 105 | 102 | 112 | 97.1 | 109 | 89 | 128 | 97.2 |
| O=C(Nc1cc(C(F)(F)F)cc(C(F)(F)F)c1)c1cc(Cl)ccc1O + C=CCn1c(=O)c2cnc(Nc3ccc(N4CCN(C)CC4)cc3)nc2n1-c1cccc(C(C)(C)O)n1 [MK1775] (first compound 0.016 µM, partner dose 0.02 µM) | 89.6 | 105 | 108 | 86.4 | 98.6 | 88.2 |  | 119 | 118 |
| O=C(Nc1cc(C(F)(F)F)cc(C(F)(F)F)c1)c1cc(Cl)ccc1O + O=C(Nc1ccccc1)c1cc([N+](=O)[O-])ccc1Cl [GW9662] (first compound 0.016 µM, partner dose 2 µM) | 90.6 | 120 | 77.8 | 106 | 102 | 108 | 106 | 153 | 89.7 |
